How the values were obtained:
ITK = target: T1, ITK (Homo sapiens, UniProt Q08881); assay type: cell-based
T1 construct: endogenous in cells; host or cells: human CART19 T cells (lentivirally transduced donor T cells)
T1 sequence (Q08881 1-620): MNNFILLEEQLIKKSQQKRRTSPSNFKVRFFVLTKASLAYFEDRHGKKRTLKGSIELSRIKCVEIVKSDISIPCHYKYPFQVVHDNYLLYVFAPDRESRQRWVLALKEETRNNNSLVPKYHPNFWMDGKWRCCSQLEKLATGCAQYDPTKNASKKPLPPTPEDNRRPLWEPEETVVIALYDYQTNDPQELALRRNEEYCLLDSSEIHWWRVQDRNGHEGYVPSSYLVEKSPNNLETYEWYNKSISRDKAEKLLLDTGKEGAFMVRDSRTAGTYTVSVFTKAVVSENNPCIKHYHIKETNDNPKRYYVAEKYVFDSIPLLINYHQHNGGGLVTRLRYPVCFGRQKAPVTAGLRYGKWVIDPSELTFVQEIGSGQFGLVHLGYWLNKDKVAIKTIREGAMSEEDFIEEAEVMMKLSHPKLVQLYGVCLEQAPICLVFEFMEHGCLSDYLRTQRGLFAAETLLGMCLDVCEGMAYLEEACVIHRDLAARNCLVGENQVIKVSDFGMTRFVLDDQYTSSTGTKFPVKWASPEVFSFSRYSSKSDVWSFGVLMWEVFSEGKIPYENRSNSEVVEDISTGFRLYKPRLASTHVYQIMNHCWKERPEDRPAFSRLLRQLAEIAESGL
Description: See Dubovsky et al. Blood 122.15 (2013):2539-49.

MCL cells = assay type: cell-based, human; conditions: in the presence of ibrutinib
Protocol: Luciferase/eGFP+ NALM-6 or RL cells were used for cytotoxicity assay as previously described. See, e.g., Gill et al. Blood. 123.15 (2014):2343-54. Targets were incubated at the indicated ratios with effector T cells for 4 or 16 hours. Killing was calculated by bioluminescence imaging on a Xenogen IVIS-200 Spectrum camera.
Additional bioluminescence assays were performed to assess CART19 cell killing of tumor cells. […] After 24 hours, the bioluminescence was detected and quantified.

CART19 T cells = conditions: with or without ibrutinib
MCL-RL cells = experiment: MCL-RL xenograft model in NSG mice; assay type: in vivo; conditions: mice treated with CART19 cells and ibrutinib
Protocol: NOD-SCID-γ chain−/− (NSG) mice originally obtained from Jackson Laboratories were purchased from the Stem Cell and Xenograft Core of the University of Pennsylvania. All experiments were performed on protocols approved by the Institutional Animal Care and Use Committee (IACUC). Schematics of the utilized xenograft models are discussed herein. Cells (MCL cell lines or T cells) were injected in 200 ul of PBS at the indicated concentration into the tail veins of mice. Bioluminescent imaging was performed using a Xenogen IVIS-200 Spectrum camera and analyzed with LivingImage software v. 4.3.1 (Caliper LifeSciencies). Animals were euthanized at the end of the experiment or when they met pre-specified endpoints according to the IACUC protocols.
Schematics such as those shown in FIGS. 20, 55, and 5A were used in this example. […] 1×10^6 cells from RL (MCL-3), JEKO-1 (MCL-4), and NALM6 (MCL-5) cell lines are injected in NSG mice (20 mice for each experiment). […] At Day 7, Day 14, Day 21, and Day 28, the bioluminescence is imaged to monitor tumor size. […] Survival of the mice is also monitored. […] 2×10^6 MCL-RL cells are injected into NSG mice. […] At days 14, 21, 28, and 35 (after injection of MCL-RL cells), the bioluminescence is imaged to monitor tumor size.
Mean bioluminescence, representing tumor growth, was assessed at various timepoints.

CART19 cells = experiment: T cell dynamics in blood following IL-7 treatment in the lymphoma animal model; assay type: in vivo, NSG mice
Description: T cell dynamics following IL-7 treatment in the lymphoma animal model was also examined. […] The extent of T cell expansion observed in mice receiving the IL-7 also correlated with tumor response. The mouse with the highest number of T cells detected in the blood at peak expansion during IL-7 treatment (mouse #3815) had the most robust reduction in tumor burden (see FIG. 49B). Moreover, the time of peak expansion correlated with the T cell dose injected as baseline. The number/level CD3-expressing cells in the blood were also measured before and after IL-7 treatment.

Compound | phosphorylated ITK (pITK-Y180) (ITK; non-specific stimulation of CART19 cells via the TCR) | ITK activation (ITK; specific stimulation of CART19 cells via the CAR) | killing of MCL cells by CART19 cells (MCL cells) | TH1 and TH2 cytokine production in CART19 cells (CART19 T cells) | peripheral CART19 cells (MCL-RL cells) | CD3+ cells in the blood (CART19 cells; after IL-7 treatment, versus control mice) | numbers of T cells in blood (CART19 cells; upon IL-7 treatment)
C=CC(=O)N1CCC[C@@H](n2nc(-c3ccc(Oc4ccccc4)cc3)c3c(N)ncnc32)C1 [ibrutinib, 1-[(3R)-3-[4-Amino-3-(4-phenoxyphenyl)-1H-pyrazolo[3,4-d]pyrimidin-1-yl]piperidin-1-yl]prop-2-en-1-one] | reduction in phosphorylated ITK | did not lead to diminished ITK activation | augmented | does not promote skewing of TH1 and TH2 cytokines | increase in peripheral CART19 cells | – | –
IL-7: exogenous recombinant human IL-7 | – | – | – | – | – | significant increase | rapid, but variable increase
